In all, about 310,000 compounds went through this assay and about 2,200 (0.71%) showed an effect of 50% or more. Effects have a minus sign here. The list shows a part of the results.
Target: human ether-à-go-go-related gene (hERG) potassium channel (human, UniProt Q12809)
Experiment: primary screen, population patch clamp on CHO cells stably expressing hERG

Sequence of human ether-à-go-go-related gene (hERG) potassium channel (Q12809 whole entry, looked up): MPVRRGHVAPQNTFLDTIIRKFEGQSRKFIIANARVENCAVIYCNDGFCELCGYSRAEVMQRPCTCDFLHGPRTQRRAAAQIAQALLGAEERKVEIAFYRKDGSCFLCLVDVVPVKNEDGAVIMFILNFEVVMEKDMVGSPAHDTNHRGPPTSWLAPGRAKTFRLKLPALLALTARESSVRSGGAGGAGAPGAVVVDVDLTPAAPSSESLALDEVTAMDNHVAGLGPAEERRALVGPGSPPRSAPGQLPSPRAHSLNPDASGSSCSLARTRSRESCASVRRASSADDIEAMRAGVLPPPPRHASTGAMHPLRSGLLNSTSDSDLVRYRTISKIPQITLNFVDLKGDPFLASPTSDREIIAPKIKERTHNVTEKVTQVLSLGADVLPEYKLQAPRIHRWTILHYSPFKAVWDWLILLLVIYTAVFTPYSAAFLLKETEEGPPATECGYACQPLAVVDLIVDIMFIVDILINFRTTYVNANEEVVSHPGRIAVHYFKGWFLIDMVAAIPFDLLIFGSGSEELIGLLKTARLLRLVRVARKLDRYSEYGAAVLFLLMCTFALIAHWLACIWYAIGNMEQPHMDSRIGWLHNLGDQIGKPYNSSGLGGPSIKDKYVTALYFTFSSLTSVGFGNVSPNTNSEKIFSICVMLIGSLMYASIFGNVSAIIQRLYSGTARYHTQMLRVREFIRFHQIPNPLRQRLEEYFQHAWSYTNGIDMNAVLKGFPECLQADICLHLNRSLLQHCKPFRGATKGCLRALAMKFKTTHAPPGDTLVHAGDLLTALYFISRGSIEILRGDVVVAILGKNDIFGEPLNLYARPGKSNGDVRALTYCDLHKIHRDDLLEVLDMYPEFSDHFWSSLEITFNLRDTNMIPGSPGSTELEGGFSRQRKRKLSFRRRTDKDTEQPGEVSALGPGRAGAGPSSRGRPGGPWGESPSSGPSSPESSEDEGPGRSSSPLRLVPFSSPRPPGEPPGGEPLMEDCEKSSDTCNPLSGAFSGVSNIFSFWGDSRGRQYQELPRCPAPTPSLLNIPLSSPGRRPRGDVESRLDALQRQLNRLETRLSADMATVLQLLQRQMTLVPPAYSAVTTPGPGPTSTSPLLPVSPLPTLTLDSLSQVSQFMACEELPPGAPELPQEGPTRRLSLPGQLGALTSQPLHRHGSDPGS

Row | SMILES | hERG current change (%, negative = inhibition) at 1uM
1 | CC(C)[C@H](NC(=O)c1ccco1)C(=O)NC12CC3CC(CC(C3)C1)C2 | 4.68%
2 | CCOc1ccccc1NC(=O)CSc1nc2[nH]ncc2c(=O)[nH]1 | 9.87%
3 | CCOc1ccc(OCCCC(=O)Nc2nc3ccccc3[nH]2)cc1 | 10.6%
4 | CN(C)c1ccc(/C=C2\C(=O)NC(=O)N(CCc3ccc(F)cc3)C2=O)cc1 | 13.3%
5 | O=C(CCN1C(=O)C2C3CCC(C3)C2C1=O)Nc1cccc(Cl)c1 (stereo not drawn) | 4.67%
6 | CC1(C)CC(=O)c2c(O)cc(OCC(=O)Nc3ccc(CCO)cc3)cc2O1 | -8.39%
7 | O=C(CS(=O)(=O)c1ccc(C(F)(F)F)cn1)NNC(=O)c1ccccc1 | 11%
8 | CCCCn1cnc2cc(C)c(C)cc21 | 7.49%
9 | COC(=O)CSc1nnc(-c2ccc(S(=O)(=O)NCc3cccs3)cc2)o1 | 4.7%
10 | O=C(Nc1ccccc1O)c1cc(S(=O)(=O)N2CCOCC2)c(Cl)cc1Cl | -6.9%
11 | CC1CCN(CC(=O)N2CCCc3c2c(=O)oc2ccc(OCc4ccccc4)cc32)CC1 | 3.63%
12 | O=C(NC1CCCCC1)N(CCN1CCCC1)Cc1cc2cc3c(cc2[nH]c1=O)OCCO3 | 9.89%
13 | c1ccc(-c2nnc(-c3ccccc3)c(-c3c[nH]c4ccccc34)n2)cc1 | 4.58%
14 | CCOc1ccccc1NC(=O)NNS(=O)(=O)c1cc(C)ccc1C | 8.69%
15 | Cc1ccc(N2CC(C)Cn3c2nc2c3c(=O)n(CC(=O)OCc3ccccc3)c(=O)n2C)cc1C (stereo not drawn) | -4.99%
16 | Cc1cccc(OCCCC(=O)Nc2ccc(S(=O)(=O)Nc3onc(C)c3C)cc2)c1 | 13%
17 | CCn1c(SCC(=O)Nc2ccc(C(C)=O)cc2)nnc1C1CC1 | 11%
18 | O=C(O)C1(S(=O)(=O)CCC(F)=C(F)F)CC1 | 12.8%
19 | Cc1cn(S(=O)(=O)c2cc(Br)ccc2Br)cn1 | 7.35%
20 | CC(C)CC(c1nnnn1C(C)C)N1CCN(C(=O)c2ccco2)CC1.Cl (stereo not drawn) | -4.77%

Row | SMILES | hERG current change (%, negative = inhibition) at 1uM
21 | COc1ccc(-c2cccc(C(=O)Nc3ccc(C)cc3)c2)cc1 | 14.2%
22 | CN1CCN(S(=O)(=O)c2ccc3ccccc3c2)CC1 | 9.45%
23 | CC1CCCCN1C(=O)CSc1nc2ccccc2[nH]1 (stereo not drawn) | 15.6%
24 | C1=C(N2CCOCC2)/C(=C/c2nc3ccccc3[nH]2)CC1 | 12.4%
25 | O=C(CSC(=S)N1CCOCC1)Nc1ccc(S(=O)(=O)Nc2ncccn2)cc1 | 16.6%
26 | C=CCOc1ccc2c(c1)C(=NO)c1cc(OCC=C)ccc1-2 | 5.57%
27 | O=C1NC(=O)N(Cc2ccco2)C(=O)/C1=C/C=C/c1ccco1 | 14.5%
28 | Cc1cc(NC(=O)CCC2COc3ccccc3O2)no1 (stereo not drawn) | 3.99%
29 | O=C(Nc1ccc2nc(-c3ccccn3)[nH]c2c1)C1CCCCC1 | 1%
30 | O=C(O)CCCNS(=O)(=O)c1cccs1 | 14.4%
31 | CCN(CC)c1ccc(NC(=O)c2ccccc2OCC(=O)OC)cc1 | 4.39%
32 | COc1ccccc1/C=N/NC(=O)c1nnn(-c2nonc2N)c1CN(C)c1ccccc1 | 16.4%
33 | CC1CCN(Cc2nnnn2CCCC(=O)NCCN2CCOCC2)CC1 | 11%
34 | COc1ccc(C2c3sc(=O)[nH]c3SC3C4CCC(C4)C23)cc1OC (stereo not drawn) | 4.6%
35 | NC(=O)C1(N2CCCCC2)CCN(C(=O)Nc2ccccc2C(F)(F)F)CC1 | 9.64%
36 | C=CC[n+]1c(-c2ccc(C)cc2)csc1Nc1c(C)n(C)n(-c2ccccc2)c1=O.[Br-] | 1.8%
37 | CCOc1ccc2oc(=O)cc(C)c2c1 | 12.5%
38 | C=C1CSc2nc(=O)c3c4c(sc3n21)CCC4 | -1.33%
39 | COc1ccc(N(CC(=O)NCc2ccccc2OC)S(=O)(=O)c2c(C)nn(C)c2C)cc1 | 8.52%
40 | O=C(Nc1cccc(Cl)c1)C1CCCN(S(=O)(=O)c2cnc[nH]2)C1 (stereo not drawn) | 16%

Row | SMILES | hERG current change (%, negative = inhibition) at 1uM
41 | O=C(CNc1ccccc1)N/N=C/c1ccc2c(c1)OCCO2 | 9.93%
42 | Cc1ccc(NC(=S)N2CCN(Cc3ccc4c(c3)OCO4)CC2)c(C)c1 | 7.21%
43 | Cc1ccc(-c2c(C(=O)N/N=C/c3ccco3)nnn2-c2nonc2N)cc1 | 11.6%
44 | CC12CCC(C(=O)N(CCC#N)CCC#N)(CC1=O)C2(C)C (stereo not drawn) | -7.56%
45 | CCOc1ccc2nc(SCC(=O)c3ccccc3)sc2c1 | 17.8%
46 | COc1cccc2[nH]c3c(=O)[nH]cnc3c12 | 12.6%
47 | Cc1cc(C)c(N=Cc2c(O)[nH]c(=O)[nH]c2=O)c(C)c1 | 12%
48 | CC(C)c1ccc(NC(=S)NN2CCOCC2)cc1 | 12.6%
49 | CCNC(=S)N/N=C1\CCCCc2ccccc21 | 2.38%
50 | O=C(NCCCCc1ccccc1)C1CC(c2ccccc2C(F)(F)F)=NO1 (stereo not drawn) | 15.9%
51 | O=C(NCc1cccs1)c1ccc([N+](=O)[O-])cc1Cl | 7.25%
52 | COC(=O)CCC(=O)NC(=S)Nc1ccccc1F | 9.11%
53 | COC(=O)c1cn(C(=O)OC)c2ccccc12 | 4.65%
54 | COc1ccc(C(=O)NCC2(N3CCCCC3)CCCCC2)cc1S(=O)(=O)N(C)C | 9.44%
55 | CC(C)(C)NC(=O)Cn1c(=O)oc2ccc(Cl)cc21 | 9.8%
56 | COc1ccc(C(=O)OC2CCN(C)CC2)cc1.Cl | 1.23%
57 | Cc1ccc(C)n1-n1c(C)nc2scc(-c3cccs3)c2c1=O | 3.06%
58 | CC(C)(C)NC(=O)NC(=O)CSc1cccc(C(F)(F)F)c1 | 11.6%
59 | CCSc1nnc(CSc2ncccn2)n1C | 8.89%
60 | CN(C)c1oc(COc2ccc(F)cc2)nc1C#N | 2.07%

Reference: PMC4336329 (PLoS ONE, 2015)
